Assay results published in PubChem BioAssay AID485294 (National Center for Advancing Translational Sciences (NCATS), 2010).
Screen size: about 370,000 compounds; about 150 (0.041%) were called active. Inconclusive results, whose numbers are uncertain, are shown with a selection of clear calls. The call rests on the fitted dose curve; in most records, active means well fitted inhibition curve with a large enough effect; inconclusive means small, poorly fitted or top-dose-only effect; inactive means flat fitted curve, though single readings scatter. Potencies of inconclusive entries are left out as doubtful fits.

target: Beta-lactamase (Escherichia coli (strain K12)) (UniProt P00811); assay: qHTS Inhibitors of AmpC Beta-Lactamase (assay with detergent); conditions: AmpC hydrolysis of nitrocefin, absorbance 480 nm, 0.01% Triton; series mostly up to 114 µM; further: nearly all actives have a fitted effect of over 25% in size
Summary of the method: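 20 mM phosphate pH 7.0 + 0.01% (detergent screen) or 0.0001% Triton X-100; 5.3 nM AmpC reagent; cpd preinc 15 min RT; nitrocefin (800 uM stock) to start; A480 q20 s × 4 min; Activity was normalised to no-enzyme and no-compound control wells.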
Potency means the concentration at half of the fitted maximal effect; tags describe the fitted curve by direction and shape.

Chain of UniProt P00811 (P00811 whole entry, looked up): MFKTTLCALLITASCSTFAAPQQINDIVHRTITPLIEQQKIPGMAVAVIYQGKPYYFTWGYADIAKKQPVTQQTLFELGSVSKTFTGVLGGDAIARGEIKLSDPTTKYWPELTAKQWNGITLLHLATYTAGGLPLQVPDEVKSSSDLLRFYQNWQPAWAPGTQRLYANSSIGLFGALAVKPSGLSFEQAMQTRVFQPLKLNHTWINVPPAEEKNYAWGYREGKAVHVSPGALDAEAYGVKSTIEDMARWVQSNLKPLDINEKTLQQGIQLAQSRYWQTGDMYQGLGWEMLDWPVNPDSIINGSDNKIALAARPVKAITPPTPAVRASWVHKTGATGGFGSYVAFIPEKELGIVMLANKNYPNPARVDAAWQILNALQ

SMILES	Potency
C=CCn1c(=O)c2ccccc2n2c(SCc3nc4ccccc4s3)nnc12	inactive
Cc1ccc(C)c(Nc2ncnc(N)c2[N+](=O)[O-])c1	inactive
CCC(C)Nc1sc(S(=O)(=O)CC)nc1S(=O)(=O)c1ccc(C)cc1 (configuration not stated)	inactive
COc1ccccc1CNC(=O)Cn1cccc1C(=O)c1ccccc1	inconclusive [inhibitor, partial curve]
Cc1cccc(C)c1OC(=O)CSc1nnc(-c2ccccc2)o1	inconclusive [inhibitor, single point]
COC(=O)c1[nH]c2ccccc2c1NC(=O)CN1CCN(c2cccc(Cl)c2)CC1	inconclusive [inhibitor, single point]
C(=N\n1c2ccccc2c2ccccc21)/c1ccccc1	inactive
Cc1ccc(C)c(N2CCN(C(=O)c3cc4c(=O)n(Cc5ccco5)ccc4nc3C)CC2)c1	inactive
CCC(C)(C)n1nnnc1C(c1ccncc1)N1CCC(Cc2ccccc2)CC1 (configuration not stated)	inconclusive [inhibitor, partial curve]
Cc1ccc2c(c1)S/C(=C/c1ccc[n+](C)c1)N2CCO	inconclusive [inhibitor, single point]
CCn1c(=O)c(C(=O)NCCCO)c(O)c2ccccc21	inactive
O=c1[nH]c2cc3c(cc2cc1CN(Cc1ccccc1)Cc1nnnn1Cc1ccco1)OCCO3	inactive
COc1ccccc1NS(=O)(=O)c1ccc2oc(SCC(=O)N3CCNC3=O)nc2c1	inconclusive [inhibitor, full curve, poor fit]
COc1ccc(S(=O)(=O)N2CCN(C(=O)c3cc(-c4ccccc4OC)n[nH]3)CC2)cc1	inconclusive [inhibitor, single point]
Oc1ccc(/C=N/Nc2cc(N3CCCC3)nc(N3CCCC3)n2)cc1	inactive
CCOC(=O)N1CCC(N2Cc3cccc(C(=O)NCc4ccccc4OC)c3C2=O)CC1	inconclusive [inhibitor, single point]
CCN(CC(=O)Nc1ccccc1C(F)(F)F)C(=O)CCc1c(C)[nH]c(=O)c(C#N)c1C	inconclusive [inhibitor, full curve, poor fit]
CC1(C)CC2CC(C)(CN2C(=O)COC(=O)c2cncc(Br)c2)C1 (configuration not stated)	inactive
O=C(c1ccc(S(=O)(=O)Cc2ccccc2Cl)c([N+](=O)[O-])c1)N1CCN(c2ccccn2)CC1	inactive
O=C(NCc1ccccc1)c1onc(CSc2ccc(Cl)cc2)c1C(=O)NCC1CC1	inconclusive [inhibitor, single point]
Cc1c(Cl)cccc1NC(=O)CNC(=O)C1CC(=O)N(CCc2ccccc2)C1 (configuration not stated)	inconclusive [inhibitor, partial curve, poor fit]
CCCCC(CC)CNC(=O)CN(C)S(=O)(=O)c1ccc2c(c1)c(=O)n(C)c(=O)n2C (configuration not stated)	inactive
CC(C)=CC(=O)OCC(=O)Nc1nc(C)c(Cl)cc1Cl	inconclusive [inhibitor, partial curve, poor fit]
CCOC(=O)c1cc2c(=O)n3ccccc3nc2n(CCCOC)c1=NC(C)=O	inactive

SMILES	Potency
COc1ccc(-c2cc(=O)oc3cc(OC(C)C(=O)NC(Cc4c[nH]c5ccc(O)cc45)C(=O)O)ccc23)cc1 (configuration not stated)	inconclusive [inhibitor, full curve, poor fit]
COC(=O)c1c(-c2ccccc2)csc1NC(=O)c1ccco1	inactive
COc1ccc(-c2nc(CCNC(=O)c3cccs3)cs2)cc1	inconclusive [inhibitor, full curve]
O=C(NCCc1ccccc1F)C1CCC(=O)N(CCCN2CCCC2=O)C1 (configuration not stated)	inconclusive [inhibitor, single point]
COc1ccc(C(=O)Cn2c(NCCO)nc3ccccc32)cc1OC	inconclusive [inhibitor, full curve, poor fit]
C=CC(=O)N(CCC)C(c1ccccc1)c1ccccc1OC (configuration not stated)	inconclusive [inhibitor, full curve, poor fit]
CCN(CC)CCOc1cccc(C(C)C)c1	inconclusive [inhibitor, partial curve]
O=S(=O)(Nc1cc(Sc2cccc3cccnc23)c(O)c2ccccc12)c1ccccc1	inactive
COc1ccc(-c2c[n+](CC(=O)OC3CC(C)CCC3C(C)C)c3n2CCC3)cc1 (configuration not stated)	inactive
Cc1ccsc1CN(C)C(=O)C1CCC(=O)N(CCc2cccc(F)c2)C1 (configuration not stated)	inconclusive [inhibitor, partial curve, poor fit]
Cc1cc(C(F)(F)F)nn1CC(=O)Nc1ccc(Br)c2cccnc12	inconclusive [inhibitor, full curve, poor fit]
O=S(=O)(NCCCc1ccccc1)c1cccc2nsnc12	inconclusive [inhibitor, full curve]
Cc1nn(-c2ccccc2)c(C)c1/C=N/NC(=O)CSc1nnc(SCc2ccccc2Cl)s1	inactive
N#Cc1c(N)n(CCCN2CCOCC2)c2nc3ccccc3nc12	inconclusive [inhibitor, full curve, poor fit]
CSc1nnc(-c2sc3cc(Cl)ccc3c2Cl)n1C	inactive
O=C(CSc1nnnn1-c1cccnc1)NCc1cccs1	inconclusive [inhibitor, partial curve, poor fit]
CCCOc1ccc(NC(=O)C2CCCNC2=O)cc1 (configuration not stated)	inconclusive [inhibitor, full curve, poor fit]
S=c1[nH]nc(COc2ccccc2)n1/N=C/c1ccccc1Cl	inconclusive [inhibitor, single point]
CCOc1cccc(C(=O)N(Cc2ccc(N(C)C)cc2)CC2CCCO2)c1 (configuration not stated)	inactive
c1ccc(COc2cccc(CN3CCCCC3)c2)cc1	inconclusive [inhibitor, full curve, poor fit]
COc1ccc(-c2cc(C#N)nc(NN)n2)cc1	inactive
O=C(NCc1ccncc1)C1CCCN(S(=O)(=O)c2cc(Cl)ccc2Cl)C1 (configuration not stated)	inconclusive [inhibitor, full curve, poor fit]
C1CCc2nnc(C3CC3)n2CC1	inconclusive [inhibitor, full curve, poor fit]
COc1cc(C)nc(N2CCCC(C(=O)NCC(C)C)C2)n1 (configuration not stated)	inconclusive [inhibitor, partial curve, poor fit]

SMILES	Potency
COc1cccc(-n2c(=O)c3c(C)c(C)sc3n(CC(=O)Nc3ccccc3OC)c2=O)c1	inactive
CCCOc1ccc(N2C(=O)CC(NCc3cccnc3)C2=O)cc1 (configuration not stated)	inactive
COc1cc(/C=N/Nc2ccccc2)ccc1OC(=O)c1cccs1	inconclusive [inhibitor, full curve, poor fit]
CCOc1cc(CNc2ccc(C(=O)O)cc2)ccc1OCc1ccccc1	inactive
NC(=S)Nc1cnc2ccccc2c1	inconclusive [inhibitor, full curve]
O=C(c1cc2ccccn2n1)N1CCN(c2ccccn2)CC1	inconclusive [inhibitor, full curve, poor fit]
CCc1ccccc1NC(=S)NC1CC2CCC(C1)N2Cc1ccc(F)cc1 (configuration not stated)	inactive
CCCCCC(O)(CCCCC)C(=O)NNc1ccccc1	inconclusive [inhibitor, partial curve]
CCn1c(SCC(=O)Nc2nc(C)cs2)nnc1-c1ccco1	inconclusive [inhibitor, partial curve]
COc1ccc(Cl)cc1C(=O)OCC(=O)NC(=O)c1cccn1C	inconclusive [inhibitor, full curve, poor fit]
O=C(COc1ccccc1)N1CCN(c2ccccc2)CC1	inactive
Nc1nnc(SCn2nnc3ccccc3c2=O)s1	inconclusive [inhibitor, single point]
OC(c1ccccc1)(c1ccccc1)C1CCNCC1	inactive
COc1ccc(-c2cccc(NS(=O)(=O)c3ccc(C)s3)c2)nn1	inactive
Cc1cc[n+](CC(=O)c2cccs2)cc1	inconclusive [inhibitor, single point]
CCn1cc(C(=O)O)c(=O)c2cc(F)c(N3CCN(C(=S)NC(=O)c4ccccc4Br)CC3)cc21	inconclusive [inhibitor, full curve]
C=CCn1c(SCC(=O)N(CC)C2CCS(=O)(=O)C2)nnc1-c1ccccc1 (configuration not stated)	inconclusive [inhibitor, partial curve]
CCN(c1ccccc1)S(=O)(=O)c1ccc(C(=O)N2CC(C)CC(C)C2)cc1 (configuration not stated)	inconclusive [inhibitor, full curve, poor fit]
CCOc1ccc(OCc2cccc(C(=O)N/N=C/c3cccnc3)c2)cc1	inactive
COC(=O)C1=C(c2ccccc2OCc2ccccc2)C[C@@H]2CC[C@H]1N2C(=O)NCc1ccc(OC)c(OC)c1	inactive
CCC(Sc1nc2ccccc2c2nc(CCn3c(C)nc4ccccc43)nn12)C(=O)Nc1ccc(F)cc1 (configuration not stated)	inactive
O=C(Nc1sc2c(c1C(=O)O)CCCCC2)c1ccccc1	inactive
COCCN(C(=O)CC1C(=O)NCCN1Cc1ccc(-c2ccccc2)cc1)C(C)C (configuration not stated)	inactive
O=C(O)CC(NC(=O)CC(c1ccccc1)c1ccccc1)c1cccc([N+](=O)[O-])c1 (configuration not stated)	inconclusive [inhibitor, full curve, poor fit]
